Screen size: about 310,000 compounds; about 2,200 (0.71%) showed an effect of 50% or more. Effects have a minus sign here. Some of the results follow.
target: human ether-à-go-go-related gene (hERG) potassium channel (human, UniProt Q12809); experiment: primary screen, population patch clamp on CHO cells stably expressing hERG
Sequence (Q12809 whole entry, looked up): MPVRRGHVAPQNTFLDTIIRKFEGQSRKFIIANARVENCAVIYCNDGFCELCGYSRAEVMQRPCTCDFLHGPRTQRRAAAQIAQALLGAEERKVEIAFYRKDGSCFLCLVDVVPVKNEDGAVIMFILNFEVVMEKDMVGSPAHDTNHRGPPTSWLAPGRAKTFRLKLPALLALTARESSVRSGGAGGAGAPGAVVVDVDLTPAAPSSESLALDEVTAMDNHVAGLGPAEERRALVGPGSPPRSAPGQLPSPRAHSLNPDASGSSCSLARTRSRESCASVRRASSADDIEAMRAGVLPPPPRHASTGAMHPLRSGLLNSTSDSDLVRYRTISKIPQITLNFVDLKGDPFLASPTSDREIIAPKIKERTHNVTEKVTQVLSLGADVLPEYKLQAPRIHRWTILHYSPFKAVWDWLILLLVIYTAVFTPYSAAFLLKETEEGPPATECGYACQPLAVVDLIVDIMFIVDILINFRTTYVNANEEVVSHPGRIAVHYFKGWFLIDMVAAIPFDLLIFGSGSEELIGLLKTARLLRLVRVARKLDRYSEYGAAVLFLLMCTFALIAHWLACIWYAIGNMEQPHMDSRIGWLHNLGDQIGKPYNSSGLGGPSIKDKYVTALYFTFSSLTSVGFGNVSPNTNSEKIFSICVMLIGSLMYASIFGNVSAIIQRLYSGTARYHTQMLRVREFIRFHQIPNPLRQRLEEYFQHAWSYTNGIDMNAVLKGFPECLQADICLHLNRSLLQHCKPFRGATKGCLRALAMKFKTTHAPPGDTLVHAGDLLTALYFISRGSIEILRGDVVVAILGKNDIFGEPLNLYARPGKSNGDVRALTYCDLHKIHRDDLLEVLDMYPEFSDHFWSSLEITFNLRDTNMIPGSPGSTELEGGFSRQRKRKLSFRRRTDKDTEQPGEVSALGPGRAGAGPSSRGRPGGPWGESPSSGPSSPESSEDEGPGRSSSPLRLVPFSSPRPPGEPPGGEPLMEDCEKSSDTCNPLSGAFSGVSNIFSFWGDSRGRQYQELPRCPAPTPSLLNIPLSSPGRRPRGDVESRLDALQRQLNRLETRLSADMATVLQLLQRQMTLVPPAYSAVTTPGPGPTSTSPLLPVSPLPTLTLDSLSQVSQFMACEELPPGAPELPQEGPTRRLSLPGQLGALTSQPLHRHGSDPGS

Compound	hERG current change (%, negative = inhibition) at 1uM [%]
CN(C)c1ccc(/C=N/NC(=O)C2COc3ccccc3O2)o1 (stereo not shown)	12
CCOc1nc(Nc2ccc([N+](=O)[O-])cc2)nc(NC(C)(C)C)n1	6.48
COc1cccc2c1Oc1ncccc1N(C(=O)CCC(=O)NCc1ccccc1F)C2	1.82
CCOC(=O)C1CCCN(CCC(=O)Nc2cc(OC)ccc2OC)C1.Cl (stereo not shown)	4.64
Cc1nc(SCc2ccc(C(=O)O)cc2)nc2c1CCCC2	8.98
CNC1(C(N)=O)CCNCC1	13.7
Cn1nnnc1SCCOc1ccc(C#N)cc1	1.5
CCOC(=O)c1c(C)[nH]c(C(=O)COC(=O)[C@H](C)NC(=O)c2ccccc2Cl)c1C	14.1
COc1cc2c(cc1OC)C1Cc3ccc(OC)c(OC)c3C[N+]1([O-])CC2 (stereo not shown)	14.1
CC(c1ccc(F)cc1)n1cc(C(=O)NCc2ccccn2)nn1 (stereo not shown)	4.72
O=C(O)C1CSC2(c3ccc(F)cc3)CCC(=O)N12 (stereo not shown)	14.8
CCN(Cc1ccncc1)C(=O)C1CCC(=O)N(Cc2ccc(Cl)cc2)C1 (stereo not shown)	-13.9
Cc1[nH]c2ccc(F)cc2c1CCN(Cc1cccnc1)C(=S)Nc1ccccc1	6.15
COc1ccc(-n2nc(C(=O)c3cccs3)cc(-c3nc4ccccc4[nH]3)c2=N)cc1	5.98
Cn1nc(C(C)(C)C)c([N+](=O)[O-])c1C(=O)Nc1ccc(Br)cc1	20.5
O=C(Cn1nc(Cl)nc1Cl)c1ccc2c(c1)OCCO2	11.6
Cc1cc(C)n2nc(-c3ccccc3)cc2n1	11.7
Cc1ccc(F)c(NC(=O)c2ccc(Cn3cc(Cl)cn3)cc2)c1	14.9
COc1ccc(-c2nn(-c3ccccc3)cc2/C=C2/SC(=S)N(CCCC(=O)O)C2=O)c(C)c1	20.4
CC(C)C[C@H]1CN=C(N(C)C)N1CCCCc1ccccc1	-28
COc1ccc(CNC(=O)[C@@H]2CC=C[C@@H]3CCN(C4CCCCC4)C(=O)[C@@H]32)cc1	9.19
O=[N+]([O-])c1ccccc1S(=O)(=O)N1CCN(Cc2cc3c(cc2O)OCO3)CC1	25.7

Compound	hERG current change (%, negative = inhibition) at 1uM [%]
CN(C)C(CNC(=O)c1ccc(S(=O)(=O)Nc2cccc(C(F)(F)F)c2)cc1)c1ccco1 (stereo not shown)	4.7
NC(=S)NNC(=O)C12CC3CC(CC(C3)C1)C2	2.9
COc1cccc(CNC(=O)N2CCN(c3ccccc3C)CC2)c1	17.1
COc1cc(CCC(=O)Nc2ccc(C)c(S(=O)(=O)N3CCCCCC3)c2)cc(OC)c1OC	1.23
CCC(C(=O)NC1CCCC1)N(Cc1ccco1)C(=O)Cn1nnc(-c2ccc(C)cc2)n1 (stereo not shown)	-2.45
COc1cc(NC(=O)c2ccco2)c(OC)cc1NC(=O)CCC(=O)Nc1cc(C)cc(C)c1	-0.696
CC(=O)c1ccccc1NC(=O)C1C2CCC(O2)C1C(=O)O (stereo not shown)	-3.11
CCc1noc(C)c1C(=O)Nc1nc(-c2ccc(F)cc2)c(C)s1	6.08
CS(=O)(=O)c1ccc2nc(NC(=O)CN3C(=O)NC4(CCCC4)C3=O)sc2c1	2.82
Cc1cc(C(=O)Nc2ccccc2C(=O)N2CCCCC2)ccc1[N+](=O)[O-]	9.31
COc1cc(/C=N\NC(=O)c2ccc(-c3ccccc3)cc2)cc(OC)c1O	-4.58
COc1ccc(/C=N/NC(=O)c2ccc(CSc3nc(C)cc(C)n3)cc2)c(OC)c1OC	1.65
O=[N+]([O-])c1cc(C(F)(F)F)ccc1SCC(O)CO (stereo not shown)	-5.64
Nc1cccc2nc3ccccc3cc12	-1.5
Cc1ccc(CN2C(=O)CSC2c2ccccc2F)cc1 (stereo not shown)	12.1
Cc1ccc(N(CC(=O)NC(C)(C)C)C(=O)CCC(=O)Nc2nccs2)cc1C	2.16
O=C(CSc1n[nH]c(=O)n1C1CC1)NCc1ccccc1Cl	11.4
Cn1cnnc1SC(C(=O)Nc1ccc(F)cc1)c1ccccc1 (stereo not shown)	4.93
O=C(NC(Cc1ccccc1)C(=O)O)C1CCCCC1 (stereo not shown)	11.6
CSc1ccc(/C=N/n2c(C)cc(C)cc2=O)cc1	4.02
Cc1cc(C)n2nc(CC(=O)NC3CCCC(C)C3C)nc2n1 (stereo not shown)	10.6
O=C(CN1C(=O)NC2(CCc3ccccc3C2)C1=O)Nc1ccc(F)cc1 (stereo not shown)	8.54

Compound	hERG current change (%, negative = inhibition) at 1uM [%]
O=C(COC(=O)CNC(=O)c1ccccc1)Nc1ccc(S(=O)(=O)N2CCOCC2)cc1	8.93
O=C(Nc1ccccc1C(F)(F)F)N1CCCCCC1	12.5
Cc1c(NC(=O)CN2C(=O)NC(C)(c3ccccc3Cl)C2=O)c(=O)n(-c2ccccc2)n1C (stereo not shown)	12.9
Cc1ccc(Cl)cc1NC(=O)C1CCN(S(C)(=O)=O)CC1	17.7
CCCCn1c(N)c(N(CCC(C)C)C(=O)CSc2nnc(C)s2)c(=O)[nH]c1=O	1.94
O=C(CN1CCN(S(=O)(=O)c2ccccc2)CC1)Nc1ccccc1C(=O)NC1CC1	1.22
Cc1ccc(C)c(C(=O)c2ccccc2NC(=O)c2ccccn2)c1	10.7
COCCn1c(=O)[nH]c(=O)c2cc(C(=O)c3cc(OC)ccc3O)cnc21	7.1
C=CCN1C(=O)C2(C(C(=O)OCC)=C(N)Oc3c2c(=O)oc2ccccc32)c2ccccc21 (stereo not shown)	12.9
Cn1c(CCN2CCCCC2)nc2cc(NC(=O)Nc3ccccc3)ccc21	-2.3
O=C(CSc1nc(-c2ccccc2Cl)ns1)NCc1ccc2c(c1)OCO2	15.1
Cc1ccc(-c2nc(C)c(C(=O)O)s2)cc1	8.69
COc1ccc(/C=C(\C)C(=O)c2c(C)cc(C)[nH]c2=O)cc1	13.2
COc1cccc(NC(=O)CN2CCN(c3ccccc3F)CC2)c1	-2.33
CC(=O)N1N=C(C)CC1c1ccc(O)cc1 (stereo not shown)	21.2
COC(=O)Cc1ccc(NC(=S)N2CCCC(CO)C2)cc1 (stereo not shown)	-21.1
CCc1noc(C)c1C(=O)Nc1cc(Cl)ccc1N1CCCC1	13.7
CCOC(=O)c1c(C)nc2c(c1-c1ccccc1)C(=O)CCC2	5.35
CC(=O)Nc1ccc(C(=O)Nc2ccc(S(=O)(=O)Nc3nccc(C)n3)cc2)cc1	12.7
NC(=O)N/N=C/c1ccccc1OC(=O)c1ccccc1Br	21.3
CC(=O)Nc1cc(C(=O)N2CCC3(CC2)OCCO3)ccc1S(=O)(=O)c1ccc(Cl)cc1	8.97
COc1cccc(N2CCN(C(=O)CCC(=O)N3CCOc4ccc(C)cc43)CC2)c1	1.11

Compound	hERG current change (%, negative = inhibition) at 1uM [%]
O=C(Cn1cnnn1)NC1CCCN(Cc2ccccc2F)C1 (stereo not shown)	13.9
Cc1cc(C)n2nc(S(=O)(=O)Nc3c(Cl)cccc3Cl)nc2n1	12.7
O=C(COc1ccc2ccc(=O)oc2c1)N1CC[C@@]2(O)CCCC[C@H]2C1	10.1
COc1cc(NC(=O)c2ccc(C)cc2)ccc1NC(=O)c1cc2ccccc2o1	14.1
O=S(=O)(c1ccc(F)cc1)N1CCN(c2ncnc3c2cnn3-c2ccccc2)CC1	9.52
CCO/C=C1\SC(=S)N(c2ccc(Cl)cc2)C1=O	23
COc1ccc(OC)c(S(=O)(=O)N2CCC(C(=O)NC(C)c3ccccc3)CC2)c1 (stereo not shown)	1.22
O=C(OCCOCCN=C1NS(=O)(=O)c2ccccc21)c1ccncc1	16.3
COc1ccc(CCNC(=O)CC(C)S(=O)(=O)c2ccc3c(c2)NC(=O)CO3)cc1OC (stereo not shown)	11.8
N#Cc1c(N)n(CCc2ccc(F)cc2)c2nc3ccccc3nc12	19.9
CC(=O)C1=C(O)C(=O)N(Cc2ccco2)C1c1cccc(F)c1 (stereo not shown)	11.9
Cc1nc2sc(C(c3ccco3)N3CCOCC3)c(O)n2n1 (stereo not shown)	14.2
O=C(Nc1ccc2snnc2c1)N1CCCCC1	8.63
Cc1oc(S(=O)(=O)N2CCCC2)cc1C(=O)Nc1ccc(F)cc1	5.08
Cc1nc2cc(Cl)ccc2n1-c1ccccc1	3.15
COc1cc2c(cc1OC)C(c1ccccc1Cl)N(C)CC2 (stereo not shown)	4.56
Cc1ccc2oc(=O)c3cnn(CC(=O)NCCN4CCOCC4)c3c2c1	9.71
COCCNC(=O)CCN1N=C(c2ccccc2)CCC1=O	13.3
CCCc1nnc(SCC(=O)Nc2ccc(Cl)cc2Cl)o1	11.6
CC(C)NC(=O)CN1CCN(Cc2nc(C(c3ccccc3)c3ccccc3)no2)CC1	-7.13
CCN(CC)CCn1c2ccccc2c2cnc(N)c(C#N)c21	-27.4
Cc1ccc(S(=O)(=O)[N-]c2nc3ccccc3nc2-[n+]2cc(C)cc(C)c2)cc1	14.7

— publication PMC4336329 (PLoS ONE, 2015)
